Results published in the antibiotic and cytotoxicity screens of Wong et al. (2023).
This is one part of the list.

Tests used:
HSkMC = human skeletal muscle cells; test: cytotoxicity call (relative viability < 0.9); conditions: 10 µM
HepG2 = test: cytotoxicity call (relative viability < 0.9); conditions: 10 µM
S. aureus RN4220 = test: growth inhibition call (relative growth <= 0.2); conditions: 50 µM

Row | SMILES | cytotoxicity call (HSkMC) | cytotoxicity call (HepG2) | growth inhibition call (S. aureus RN4220)
1 | O=C(NC1Cc2ccccc2C1)[C@H]1[C@H](CO)[C@H]2Cn3c(cccc3=O)[C@H]2N1C(=O)c1cnccn1 | inactive | inactive | inactive
2 | C[C@@H]1CN([C@H](C)CO)C(=O)c2cc(NC(=O)Cc3cn(C)c4ccccc34)ccc2O[C@H]1CN(C)S(=O)(=O)c1cn(C)cn1 | inactive | inactive | inactive
3 | C[C@@H]1CN([C@@H](C)CO)C(=O)Cc2cc(NC(=O)Nc3cccc4ccccc34)ccc2O[C@@H]1CN(C)S(=O)(=O)c1ccc(Cl)cc1 | inactive | active | inactive
4 | C[C@H]1CN([C@@H](C)CO)C(=O)c2cccc(NC(=O)Nc3ccc(C(F)(F)F)cc3)c2O[C@@H]1CN(C)Cc1ccc(C(F)(F)F)cc1 | inactive | active | inactive
5 | CCC(=O)N1C[C@]2(C1)CN([C@H](CO)c1[nH]c3cc(ccc3c12)OC)C(=O)CN1CCOCC1 | inactive | inactive | inactive
6 | C[C@@H]1CN([C@@H](C)CO)C(=O)c2cc(NC(=O)Nc3ccc(F)cc3)ccc2O[C@@H](C)CCCCO[C@@H]1CN(C)S(=O)(=O)c1ccccc1 | inactive | inactive | inactive
7 | CN(C)CC(=O)N[C@H]1CC[C@@H](CC(=O)NCCN2CCCCC2)O[C@H]1CO | inactive | inactive | inactive
8 | C[C@@H]1CCCCO[C@@H](CN(C)C(=O)Nc2ccc(F)cc2)[C@@H](C)CN([C@@H](C)CO)C(=O)c2cc(NC(=O)Nc3ccc(C(F)(F)F)cc3)ccc2O1 | inactive | inactive | inactive
9 | C[C@H]1CN([C@@H](C)CO)C(=O)c2cc(-c3cncnc3)cnc2O[C@@H]1CN(C)C(=O)Nc1ccc2c(c1)OCO2 | inactive | inactive | inactive
